Measured values published in the RNAGym collection of RNA variant scans (doi:10.7554/elife.90254).
The source gives no read counts; variants with many changes may rest on few reads.

B1: LINE1-full (parent)
chain: UACGUAGGUGGUUUUCCCCUGAUAGUGCUAAGGGGGCCUGGAAGUUUGGACUGGGCAGAGCUCAACACAGCGUGGCAAAGUGGCUGUGGCUAGACUGCCUCUCUGGAUUCCUCGUCACUCAGCAGGGCAUCUCUGAGAGAAAUGCC

Variants of: B1
Assay: self-cleavage, relative activity (ratio to wild type); higher = more cleavage; in vitro, sequencing; the parent is a self-cleaving ribozyme

Variant | self-cleavage
U1C A42G C110A | 1.96
U1C U13C U26C A67G A141G | 0
A2G U5G A43C A78G U130A A136G U143C | 0
U1A C116U C118U | 1.36
U1A U26C U39A | 1.45
A2G G8A U9A G34A G86U A138G | 0.16
U1C A42G G82A U112C A124U A129U A141G | 2.27
A2G G10A A43C C63U C113U | 0.12
U1A U13A U14C | 1.25
U1C U15C U87C U100C | 0
A2G A6U A138G G144A | 0.77
U1C A6G U14C A42U G137U | 0.82
A2G A24G C37U U47C A79G | 0
U1C A22G A64G G105U U115C U132C | 0.27
U1C U23C U46C U109A C118U | 1.03
U1C U20C U96A U134C A138U | 0
U1C A64G A67U | 0.04
U1A A59G G114A U134C | 0.24
A2G A79U U104A U134C | 1.96
U1C A2G A57G A77G | 0
A2G U26G U112A A121G U134A | 0.42

Variant | self-cleavage
A2G U13G U47A G89A | 0.15
A2G A69G U143G | 0.66
U1C A2G G10U A59G | 0.26
A2G A30U C84U G127C | 0.66
A2G U12G U39C A67U U81A | 0
U1A U39G A65U U81A | 0.69
A2G A77G C98G C145U | 0.34
A2G G8C A124G A140G | 0.53
U1C U39A A117G C133A | 0.99
U1C A43G C61U | 0.06
A2G G40U U96C | 0.44
U1G U23A U62C A117U A138G | 0
A2C G54A A64G U81C | 0.11
A2G G4A U132C | 0.91
U1C U15C U45C U119C | 1.25
A2G G33A A43G A67G | 0.21
A2G A129U U143C | 0.53
U1C U12C U39C A69U A142G | 0.12
U1C C101U U102C U130C | 0.53
U1C A24U A141G | 0.74
U1C A24U A77G A117U | 0.67

Variant | self-cleavage
U1C U15A U73C A138G A141G | 0.51
A2G G32U U62C U104G U112A | 0
U1C U12C C113U | 0.78
A2G U9C A65G | 0
U1C C19U G89U | 0.03
U1C A79G U96C | 0
A2G A79C A142G | 1.84
U1C U47C G82A | 1.71
A2G U12A U100C C128U | 1.04
U1C U39A U100A U108C A141G | 1.09
U1C A77G A136G | 0
A2G G36A U52A U119A | 0.41
A2G C71U A92G A136G | 0.63
A2G U13C A121U A138U | 1.25
U1C A67G A138G | 0.48
A2G C28U A67G | 0.69
A2G A22U A79U G83A U134A A140G | 0
U1G A2G A69G U81C A136U U143G | 1.84
A2G U29C U100C C110U A136G | 1.15
U1C U85C U115C | 0.31
U1A U12A G36C | 1.37

Variant | self-cleavage
A2G A6G U13C | 0.35
U1C A22G U91C G106U | 0.72
U1C A43G U102C | 1.11
A2G U12C U52C U87A | 0.18
U1C U9A U15C | 0.76
U1C U14C U109C A121C | 0.61
A2G U20A U52C | 0.28
A2G U39A U47C | 1.06
A2G C3U U20A A22U | 0.56
A2G A57U A136G A142G | 0
U1C A6G U46C A107G | 0
A2G G86A C113A U130C | 0.05
U1C A78U U119A | 1.56
U1C A94U U112C | 0.07
U1C A31G A77U | 1.53
A2C U39C U45C | 1.13
A2G U14A A50U A94U U96A C101U U109C | 0.25
A2G U26C G126A A136U | 0.62
U1A G33A A77G U100C U130C A141G | 0
A2G U9G U102A C110A | 0.68
